Measurements from PMC9456343.
Changes are numbered by the printed parent chain. Results are given in words; binding and its absence hold for the method and conditions named. For part of these data: Binding seen in cells or lysates may run through a third protein. Some entries that bind do so weakly or less than the wild type. Each block holds one binder with its values, some of them ahead of it.

Chains of the proteins cited; added tags and fusions are not shown.
UniProt Q7GBF8: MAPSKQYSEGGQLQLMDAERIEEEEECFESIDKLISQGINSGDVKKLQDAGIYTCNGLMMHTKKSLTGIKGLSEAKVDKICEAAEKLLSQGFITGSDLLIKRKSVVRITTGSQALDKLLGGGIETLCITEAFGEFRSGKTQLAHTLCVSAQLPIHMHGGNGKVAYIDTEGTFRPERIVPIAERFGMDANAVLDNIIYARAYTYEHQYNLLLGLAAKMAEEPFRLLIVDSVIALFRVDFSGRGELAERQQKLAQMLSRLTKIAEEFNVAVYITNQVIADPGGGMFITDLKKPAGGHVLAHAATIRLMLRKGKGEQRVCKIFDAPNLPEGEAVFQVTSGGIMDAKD

How the values were obtained:
OsDMC1B (rice) [1] = molecular target: T1, OsDMC1B (rice) (UniProt Q7GBF7); assay: split reporter; BiFC with pSCYNE (SCN) and pSCYCE(R) (SCC) constructs in rice protoplasts; 28 °C in the dark for 18 h; CFP signals by confocal microscopy
T1 sequence: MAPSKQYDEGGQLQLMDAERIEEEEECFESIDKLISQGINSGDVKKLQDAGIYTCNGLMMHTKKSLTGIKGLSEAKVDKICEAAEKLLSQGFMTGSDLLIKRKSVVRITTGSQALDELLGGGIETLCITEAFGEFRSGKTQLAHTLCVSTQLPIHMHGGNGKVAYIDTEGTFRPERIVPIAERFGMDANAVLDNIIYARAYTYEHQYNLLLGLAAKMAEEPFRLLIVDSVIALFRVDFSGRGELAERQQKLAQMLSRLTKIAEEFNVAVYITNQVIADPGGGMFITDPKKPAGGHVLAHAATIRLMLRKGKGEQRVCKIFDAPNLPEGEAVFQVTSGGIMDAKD

OsDMC1A (rice) [2] = molecular target: OsDMC1A (rice) (UniProt Q7GBF8); assay: as above
OsDMC1B (rice) [3] = molecular target: T1, OsDMC1B (rice); assay: two-hybrid; pGBKT7 bait and pGADT7 prey in Y2H Gold yeast; selection on SD/-His-Ade-Trp-Leu medium containing X-alpha-Gal and AbA
OsDMC1A (rice) [4] = molecular target: OsDMC1A (rice) (UniProt Q7GBF8); assay: as above

binding (OsDMC1B (rice) [1]): binds | binding (OsDMC1A (rice) [2]): no binding | binding (OsDMC1B (rice) [3]): binds | binding (OsDMC1A (rice) [4]): no binding
B1: OsDMC1A (protein, UniProt Q7GBF8 1-344)
chain: T1 sequence with D8S, M93I, E117K, T150A, P288L

binding (OsDMC1B (rice) [1]): no binding | binding (OsDMC1B (rice) [3]): no binding
B2: OsDMC1B (protein, UniProt Q7GBF7 1-344)
chain: T1 sequence
